Measured values taken from PubChem BioAssay AID588855 (National Center for Advancing Translational Sciences (NCATS), 2011).
About 5,000 (1.2%) of roughly 410,000 compounds were called active. The inconclusive results got no clear call from the source; some entries with a clear call stand among them for comparison. Calls follow the shape of the dose curve; as a rule, active = well fitted inhibition curve with a large enough effect; inconclusive = small, poorly fitted or top-dose-only effect; inactive = no such curve, though single readings can be large or run the other way. A potency beside an inconclusive call is a rough fit, not a confirmed value.

Experiment: qHTS for Inhibitors of TGF-b; also: nearly all actives have a fitted effect of over 65% in size
Conditions: HepG2 CAGA-GFP TGF-b/SMAD3 reporter, GFP fluorescence, 18 h, TGF-beta stimulated, 500 pg/mL final; series mostly up to 46.1 µM; activity, negative = inhibition: at the top concentration
Summary of the method: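 HEPG2 CAGA-GFP reporter cells (1000/well, DMEM with 1% FBS) received compounds, then recombinant TGF-beta at 500 pg/mL final for 18 hours at 37 degrees C. Per-cell GFP summed per well was normalised to unstimulated and stimulated DMSO controls before curve fitting.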
% is scaled to controls: 0 for no effect and ±100 for the full control effect; potency is read from the fitted curve at half-maximal effect; tags tell the direction and shape of the fitted curve.

Row | SMILES | Potency | activity, negative = inhibition
1 | COc1ccc(NS(=O)(=O)c2ccc3nc(COc4ccc5ccccc5c4)[nH]c3c2)cc1 | inconclusive: 17.8 µM [inhibitor, single point] | –
2 | Cc1cc(C)c2c(CC(=O)Nc3nnc(C(C)C)s3)coc2c1 | inconclusive: 8.91 µM [inhibitor, partial curve, poor fit] | –
3 | CCCC(=O)O[C@H]1C[C@@H](C)N(C(=O)c2ccccc2)c2ccc(C)cc21 | inconclusive: 12.6 µM [inhibitor, partial curve, poor fit] | –
4 | O=S(=O)(NCC1CCCO1)c1cc(Br)c(Br)s1 (configuration not stated) | inconclusive: 0.282 µM [inhibitor, full curve] | –
5 | CCOCCCNCc1ccc(OCc2ccccc2Cl)cc1 | inconclusive: 0.112 µM [inhibitor, full curve, poor fit] | –
6 | COc1ccc(S(=O)(=O)Nc2cccc3c2O[C@H](CN(C)CC2CC2)[C@@H](C)CN([C@H](C)CO)C3=O)cc1 | inconclusive: 3.55 µM [inhibitor, single point] | –
7 | O=C(Nc1ccc(C(F)(F)F)cc1)C1CCCN1S(=O)(=O)c1cccc2cccnc12 (configuration not stated) | inconclusive: 35.5 µM [inhibitor, single point] | –
8 | CCOc1ccc(Nc2oc(/C=C/c3ccc(F)cc3)nc2C#N)cc1 | inconclusive: 5.62 µM [inhibitor, full curve] | –
9 | CC(/C=C1\SC(=S)N(CC(=O)O)C1=O)=C\c1ccccc1 | – | inactive: -0.8%
10 | O=C(CC[C@H]1O[C@@H](n2ccc(=O)[nH]c2=O)[C@H](O)[C@@H]1O)NCC(c1ccccc1)c1ccccc1 | – | inactive: -2.4%
11 | O=C(COc1ccc(S(=O)(=O)N2CCCC2)cc1Cl)NCc1cccnc1 | – | inactive: 0.0917%
12 | Cc1c(Cl)cccc1NC(=S)NC1CCN(Cc2ccccc2)CC1 | inconclusive: 0.112 µM [inhibitor, full curve, poor fit] | –
13 | C[C@@H]1CN([C@@H](C)CO)C(=O)c2cc(Br)cnc2O[C@@H]1CN(C)Cc1ccc(Oc2ccccc2)cc1 | inconclusive: 20 µM [inhibitor, single point] | –
14 | CCOc1ccc(OCC(O)CNC2CCN(Cc3ccccc3)CC2)cc1 (configuration not stated) | inconclusive: 22.4 µM [inhibitor, partial curve, poor fit] | –
15 | COc1ccc(S(=O)(=O)NCCSCc2ccco2)cc1C | inconclusive: 10 µM [inhibitor, single point] | –
16 | COc1ccc(CCNC(=O)Cn2c(=O)c3cccn3c3ccc(F)cc32)cc1OC | inconclusive: 20 µM [inhibitor, partial curve, poor fit] | –
17 | COc1ccc(CCNC(=O)CCCn2ncn3c(cc4occc43)c2=O)c(OC)c1 | inconclusive: 35.5 µM [inhibitor, single point] | –
18 | NS(=O)(=O)c1ccc(NC(=S)Nc2ccc(Br)c(Cl)c2)cc1 | inconclusive: 22.4 µM [inhibitor, single point] | –
19 | O=C(N/N=C/c1ccc(F)cc1)c1cccc(NC(=O)c2ccc(F)cc2)c1 | inconclusive: 3.98 µM [inhibitor, full curve] | –
20 | CCOc1ccc(-c2nonc2NC(=O)COc2ccc(C)c(C)c2)cc1OCC | – | inactive: 7.8%
21 | CC1(C)SC(=S)N(Cc2ccc3c(c2)OCO3)C1N(O)C(=O)NC1CCCCC1 (configuration not stated) | inconclusive: 7.94 µM [inhibitor, partial curve] | –

Row | SMILES | Potency | activity, negative = inhibition
22 | COc1ccc(-c2nn(C)c3sc(C(=O)N4CCN(c5cc(Cl)ccc5C)CC4)cc23)cc1OC | inconclusive: 11.2 µM [inhibitor, single point] | –
23 | Cc1ccc(S(=O)(=O)N2[C@@H](c3ccc(C(C)(C)C)cc3)C(C(=O)O)=CC[C@H]2c2cccs2)cc1 | inconclusive: 35.5 µM [inhibitor, single point] | –
24 | COc1ccc(-c2cc3c(c4c2ccn4C)C2CCC3C2)cc1OC (configuration not stated) | inconclusive: 10 µM [inhibitor, partial curve] | –
25 | Cc1ccc(C)c(S(=O)(=O)Nc2ccc(C(=O)NCC(c3ccco3)N3CCCCC3)cc2)c1 (configuration not stated) | inconclusive: 35.5 µM [inhibitor, single point] | –
26 | Cc1cccc2sc(NC(=O)C3=NN(c4ccccc4)C(=O)CC3)nc12 | – | inactive: 7.45%
27 | O=C(O)COc1ccccc1/C=N/NC(=O)CNC(=O)c1ccc(F)cc1 | inconclusive: 17.8 µM [inhibitor, single point] | –
28 | O=C(c1ccc([N+](=O)[O-])o1)N1CCc2ccccc2C1 | inconclusive: 35.5 µM [inhibitor, single point] | –
29 | CCCS(=O)(=O)NC(=O)C1(C)CCCN(C(=O)c2ccccc2OC)C1 (configuration not stated) | – | inactive: 7.11%
30 | CC(=O)c1ccc(NS(=O)(=O)c2ccc3[nH]c4c(c3c2)CCCCCC4)cc1 | inconclusive: 25.1 µM [inhibitor, single point] | –
31 | CN1CCN(CCCN2c3ccccc3Sc3ccc(Cl)cc32)CC1 | inconclusive: 31.6 µM [inhibitor, single point] | –
32 | Oc1ccc(C[C@H]2CNC(=S)N2CC2CCCN2C[C@H](Cc2ccc(O)cc2)N2C[C@H](Cc3ccccc3)N(CC3CCCCC3)C2=S)cc1 (some centres not stated) | active: 7.94 µM | –
33 | O=C(Nc1cccc(C(F)(F)F)c1)C1CC(=O)N(Cc2ccco2)C1 (configuration not stated) | – | inactive: 5.69%
34 | CCOc1ccc(S(=O)(=O)NCC(=O)OCc2nnc(-c3ccccc3)o2)cc1 | – | inactive: 28.6%
35 | CC(C)CCNC(=O)C1(C)CCN1Cc1ccc(-c2ccccn2)cc1 (configuration not stated) | inconclusive: 35.5 µM [inhibitor, single point] | –
36 | CCOC(=O)c1c(NC(C)=O)sc2c(O)c(CN3CCN(CC)CC3)ccc12 | inconclusive: 17.8 µM [inhibitor, single point] | –
37 | Cc1ccc(CNC(=O)c2cc3sccc3n2Cc2ccc(F)cc2)cc1 | inconclusive: 4.47 µM [inhibitor, partial curve, poor fit] | –
38 | Cc1cc(C)cc(NC(=O)COC(=O)c2n[nH]c3ccccc23)c1 | inconclusive: 35.5 µM [inhibitor, single point] | –
39 | CCC(=O)N1CCc2cc(S(=O)(=O)CCC(=O)N3CCN(c4ccccc4F)CC3)ccc21 | inconclusive: 3.98 µM [inhibitor, full curve, poor fit] | –
40 | CN(C)c1ccc(/C=C/c2ccccn2)cc1 | – | inactive: 20.4%
41 | O=C(Nc1cc(C(F)(F)F)ccc1N1CCOCC1)c1cccc(F)c1 | inconclusive: 0.0891 µM [inhibitor, full curve, poor fit] | –
42 | CCCCNC(=O)[C@@H]1CC=C[C@@H]2CCN(Cc3ccc(Cl)c(Cl)c3)C(=O)[C@@H]21 | active: 7.94 µM | –

Row | SMILES | Potency | activity, negative = inhibition
43 | C=CC[N+]1(CC(=O)NCc2ccc(NC(C)=O)cc2)CCOCC1 | – | inactive: 6.95%
44 | Cc1cccc(C)c1Cn1c(C)c(C(=O)NCc2ccc([N+](=O)[O-])cc2)sc1=O | inconclusive: 8.91 µM [inhibitor, partial curve, poor fit] | –
45 | CC(C)(C)c1ccc(OCCC(=O)Nc2cccc(S(=O)(=O)N3CCCCC3)c2)cc1 | inconclusive: 35.5 µM [inhibitor, single point] | –
46 | O=C(Nc1cccc(C(F)(F)F)c1)C(Sc1ncnc2ccccc12)c1ccccc1 (configuration not stated) | inconclusive: 35.5 µM [inhibitor, single point] | –
47 | Cc1ccccc1-c1cnc(C(O)c2ccc(-c3ccccc3)cc2)[nH]1 (configuration not stated) | inconclusive: 35.5 µM [inhibitor, single point] | –
48 | CCN(CC)c1ccc(SS(=O)(=O)O)cc1 | inactive | –
49 | CC1(C(=O)NS(=O)(=O)c2ccc3ccccc3c2)CCN1C(=O)C1(c2ccc(Cl)cc2)CCC1 (configuration not stated) | inconclusive: 35.5 µM [inhibitor, single point] | –
50 | O=C1S/C(=C\c2ccc(O)c([N+](=O)[O-])c2)C(=O)N1Cc1cccc([N+](=O)[O-])c1 | inconclusive: 35.5 µM [inhibitor, single point] | –
51 | CC(C)(C)C1CCC(=NNC(=O)c2cc(-c3ccccc3)n[nH]2)CC1 (configuration not stated) | inconclusive: 17.8 µM [inhibitor, single point] | –
52 | COc1cccc(C(=O)NN2c3ccccc3CCc3ccccc32)c1 | inconclusive: 6.31 µM [inhibitor, partial curve, poor fit] | –
53 | CC(=O)N1N=C(c2ccccc2)OC1c1ccc([N+](=O)[O-])s1 (configuration not stated) | inconclusive: 35.5 µM [inhibitor, single point] | –
54 | Cc1[nH]c2ccccc2c1C(=O)COC(=O)c1ccccc1SCC(=O)N1CCCC1 | – | inactive: -23.3%
55 | Cc1ccc([C@@H]2CC=C(C(=O)O)[C@H](c3cccc(Cl)c3)N2S(=O)(=O)c2ccc(C)cc2)cc1 | inconclusive: 35.5 µM [inhibitor, single point] | –
56 | Cc1ccc2nc(SCC(=O)Nc3ccc(F)c([N+](=O)[O-])c3)[nH]c2c1 | inconclusive: 35.5 µM [inhibitor, single point] | –
57 | CC(NCC(O)COc1ccc(Br)cc1)c1ccccc1 (configuration not stated) | inconclusive: 25.1 µM [inhibitor, single point] | –
58 | Cc1cc(C(=O)COC(=O)Cc2n[nH]c(=O)c3ccccc23)c(C)n1-c1cccc(C(F)(F)F)c1 | inconclusive: 12.6 µM [inhibitor, single point] | –
59 | CN1CCN(C2=C(NS(=O)(=O)c3cccs3)C(=O)c3ccccc3C2=O)CC1 | inconclusive: 22.4 µM [inhibitor, partial curve, poor fit] | –
60 | CC(=O)N1CCN(c2ccc(NC(=O)c3ccc([N+](=O)[O-])o3)cc2Cl)CC1 | active: 6.31 µM | –
61 | CCC(c1nnnn1CCc1ccccc1)N(Cc1ccco1)Cc1cc2cc(C)cc(C)c2[nH]c1=O (configuration not stated) | inconclusive: 35.5 µM [inhibitor, single point] | –
62 | COc1ccc(CN2C=C3C(=O)C(C)(OC(=O)C4CCCC4)C(=O)C=C3C=C2c2ccsc2)cc1 (configuration not stated) | – | inactive: -4.83%
